According to PMC4336329 (PLoS ONE, 2015):
Hit rate of the full screen: of about 310,000 compounds, about 2,200 (0.71%) showed an effect of 50% or more. Effects have a minus sign here. Some of the results follow.

Each compound was assayed against human ether-à-go-go-related gene (hERG) potassium channel (human, UniProt Q12809) (assay: primary screen, population patch clamp on CHO cells stably expressing hERG).
Sequence of human ether-à-go-go-related gene (hERG) potassium channel (Q12809 whole entry, looked up): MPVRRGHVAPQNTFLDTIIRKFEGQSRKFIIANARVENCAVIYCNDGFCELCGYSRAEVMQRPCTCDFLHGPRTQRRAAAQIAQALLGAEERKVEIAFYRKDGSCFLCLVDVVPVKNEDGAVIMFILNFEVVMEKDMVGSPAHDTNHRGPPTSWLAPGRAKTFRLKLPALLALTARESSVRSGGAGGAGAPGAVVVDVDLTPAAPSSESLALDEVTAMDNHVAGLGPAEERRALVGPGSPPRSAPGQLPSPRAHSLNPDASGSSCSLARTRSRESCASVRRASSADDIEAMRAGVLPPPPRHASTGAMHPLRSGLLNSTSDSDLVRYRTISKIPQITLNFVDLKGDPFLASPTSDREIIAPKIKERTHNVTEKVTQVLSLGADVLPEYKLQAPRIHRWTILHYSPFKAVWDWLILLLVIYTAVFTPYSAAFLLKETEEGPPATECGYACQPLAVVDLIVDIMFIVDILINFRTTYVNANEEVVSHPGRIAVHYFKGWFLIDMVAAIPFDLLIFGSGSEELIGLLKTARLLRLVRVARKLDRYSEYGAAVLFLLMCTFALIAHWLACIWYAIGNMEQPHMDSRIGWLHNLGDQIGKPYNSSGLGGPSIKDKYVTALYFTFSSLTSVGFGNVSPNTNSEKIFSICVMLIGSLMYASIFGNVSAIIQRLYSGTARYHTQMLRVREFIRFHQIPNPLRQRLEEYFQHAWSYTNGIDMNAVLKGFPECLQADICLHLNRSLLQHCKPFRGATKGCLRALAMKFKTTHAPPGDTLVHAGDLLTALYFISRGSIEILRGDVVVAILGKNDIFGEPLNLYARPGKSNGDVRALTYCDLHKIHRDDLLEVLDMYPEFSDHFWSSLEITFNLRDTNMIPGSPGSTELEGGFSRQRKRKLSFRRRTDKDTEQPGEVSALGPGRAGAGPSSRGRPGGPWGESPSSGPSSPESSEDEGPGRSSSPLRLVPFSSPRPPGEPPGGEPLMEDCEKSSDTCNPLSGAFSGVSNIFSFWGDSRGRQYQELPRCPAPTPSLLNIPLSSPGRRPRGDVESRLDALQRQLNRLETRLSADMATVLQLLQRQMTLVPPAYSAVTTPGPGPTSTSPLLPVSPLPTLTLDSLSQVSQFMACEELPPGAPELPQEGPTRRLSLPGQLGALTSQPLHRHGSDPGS

| SMILES | hERG current change (%, negative = inhibition) at 1uM [%] |
| --- | --- |
| CCOc1cc(C2Nc3ccccc3C(=O)N2c2ccccc2OC)ccc1O (centres unmarked) | 8.21 |
| CC1(C)CC(=O)C2=C(C1)Nc1ccccc1N1C(=O)c3ccccc3C21 (centres unmarked) | 3.6 |
| Cc1cc(C)cc(NS(=O)(=O)c2cc(C(=O)NCc3ccccn3)ccc2Cl)c1 | 0.728 |
| O=C(CCS(=O)(=O)c1ccc(Br)cc1)N1CCCCCC1 | 7.78 |
| COc1ccccc1C(=O)NCCC(=O)Nc1cccc(S(=O)(=O)N2CCCC2)c1 | 7.14 |
| CCN(CC)CC(=O)Nc1sc2c(c1C(=O)c1ccccc1OC)CCC2 | 11.8 |
| CCOC(=O)N1CCN(C(=O)c2ccc(N3CCCC3=O)cc2)CC1 | 10.1 |
| COC(=O)c1ccc(N(CC(=O)NCC2CCCO2)C(=O)CCC(=O)Nc2cc(C)on2)cc1 (centres unmarked) | 6.34 |
| S=C(NCCC1=CCCCC1)NCc1ccco1 | 15.3 |
| CCCC/C(=N\O)c1c[nH]c2ccccc12 | 7.38 |
| CSc1ccc(Cl)c(C(=O)Nc2ccc(C)cn2)c1 | 7.68 |
| COc1ccc(-c2ccnc3c(C#N)cnn23)cc1 | 13.5 |
| O=C(CSc1nnc(COc2ccccc2)n1-c1ccccc1)c1ccccc1 | 15.4 |
| CCC(=O)Nc1ccc(-c2csc(C)n2)cc1 | -0.151 |
| Cc1cccc(-n2c(O)c(C=Nc3ccccc3O)c3ccccc3c2=O)n1 | 8.38 |
| CC(=O)c1nnn(-c2ccc(F)cc2F)c1C | 5.44 |
| Cc1nn(CCOc2ccccc2)c(=O)n1-c1ccc(F)cc1 | 12 |
| Cc1oc(-c2ccccc2)nc1CS(=O)CC(=O)NC1CCCCCC1 (centres unmarked) | 2.05 |
| CCN(CC)CCN(C(=O)c1ccc2c(c1)CCCC2)c1nc2ccc(C)cc2s1.Cl | 11.1 |
| CN(C(=O)C1CCCO1)C1CCS(=O)(=O)C1 (centres unmarked) | 6.29 |
| CCCCNCCCOc1cccc(Cl)c1Cl | 9.03 |
| CCN(c1ccccc1)S(=O)(=O)c1ccc(Cl)c(NC(=O)CSc2n[nH]c(N)n2)c1 | 10.9 |
| CC(C)(C)Oc1ccccc1Nc1nc(NCCO)nc(N2CCCC2)n1 | 11.9 |
| Clc1ccc(SCc2cn3ccsc3n2)cc1 | 10.3 |
| CCCCN(C)CCNC(=O)Cn1ncc2c(=O)oc3ccc(C)cc3c21 | -0.911 |
| O=C(c1ccncc1)N1CCN(S(=O)(=O)c2ccccc2Br)CC1 | 6.13 |
